The other results are listed elsewhere or left out. At the low end of the ranking the order means little.

The assay has as its target T1, GST-Rok-C97-191 (UniProt O34857).
T1 sequence: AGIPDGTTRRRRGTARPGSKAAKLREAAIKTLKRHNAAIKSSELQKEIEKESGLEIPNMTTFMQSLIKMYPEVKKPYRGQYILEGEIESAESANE
The experiment in a line: protein binding microarray.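 Further: rank score from −0.5 (least bound) to 0.5 (best bound).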 Particulars: Rok is a gene silencer of Bacillus subtilis; high values mean tight binding; most listed sequences are background and not binding sites; double strand, one strand shown.
Sequence CATCACGA returned a binding signal of -0.0827 E-score.

Regarding AAATTCGA, the binding signal worked out at 0.119 E-score.

With CTAGCGGC, the binding signal is -0.00808 E-score.

Regarding AATATGTA, the binding signal stood at 0.375 E-score.

Sequence GCGTGGTA returned a binding signal of 0.0694 E-score.

ACACCTGT displayed a binding signal of -0.0272 E-score.

GCTCGTAC returned a binding signal of 0.0903 E-score.

Take AAAGAGGA: the binding signal was -0.0716 E-score.

The sequence ATTTGAGA had a binding signal of 0.0906 E-score.

Regarding GCTCTAAA, the binding signal is -0.0612 E-score.

The sequence AAATATGC gave a binding signal of 0.165 E-score.

On to GAGTACCC, for which the binding signal was -0.135 E-score.

Consider GCCTAAGA, for which the binding signal amounted to 0.00752 E-score.

For CCTTTCCC, the binding signal was -0.189 E-score.

Sequence AGTGGTTG registered a binding signal of -0.0564 E-score.

Turning to CAACCCCA, the binding signal was -0.279 E-score.

In turn, AATCCTCA had a binding signal of -0.0299 E-score.

In turn, GGAACGAC returned a binding signal of -0.0248 E-score.

Sequence CAATTGGA displayed a binding signal of -0.069 E-score.

GCGGCCGC: the binding signal is -0.348 E-score.

ATGCTCTA gave a binding signal of -0.139 E-score.

In turn, ACCCGCGC registered a binding signal of -0.254 E-score.

On to ACAAAGCC, for which the binding signal was found to be 0.0136 E-score.

For GTGTTCAA, the binding signal was -0.207 E-score.

ATAGATAT: the binding signal amounted to 0.415 E-score.

CAGTAACC displayed a binding signal of -0.00999 E-score.

Sequence AAATCATG returned a binding signal of -0.0916 E-score.

As to ACTTACCT, the binding signal came out at 0.127 E-score.

In turn, AATCTACC came in with a binding signal of 0.447 E-score.

As for CACTATGG, the binding signal was 0.113 E-score.

CGTCGTGC yielded a binding signal of -0.178 E-score.

Sequence GGCTAATA returned a binding signal of -0.0399 E-score.

GTTGGCTA: the binding signal was found to be 0.0528 E-score.

With CGTTAAAG, the binding signal is -0.0116 E-score.

As to CGAGGCCC, the binding signal was -0.334 E-score.

With CGACATGC, the binding signal is -0.104 E-score.

Sequence ACAACGAC came in with a binding signal of 0.0495 E-score.

In the case of GACTAACC, the binding signal is 0.0497 E-score.

With ATGAGGAG, the binding signal was -0.136 E-score.

Sequence CCAGCTTA yielded a binding signal of -0.119 E-score.

In turn, AATGTCTA gave a binding signal of 0.185 E-score.

Take ACCTAGAG: the binding signal is -0.0396 E-score.

The sequence CCAGACTA showed a binding signal of 0.0562 E-score.

For the sequence ACGAGACG, the binding signal is -0.0624 E-score.

The sequence ACGCATAG had a binding signal of -0.151 E-score.

Sequence AGCCTCTG registered a binding signal of -0.166 E-score.

The sequence AGAAGGCC returned a binding signal of -0.352 E-score.

Sequence CTACCCGC gave a binding signal of -0.0513 E-score.

For CGACGGCC, the binding signal is -0.129 E-score.

As to CGGTGTTA, the binding signal worked out at 0.173 E-score.

ACTGGGTC had a binding signal of -0.076 E-score.

Consider AGCAGCTA, for which the binding signal was -0.042 E-score.

The sequence AGATGGGC registered a binding signal of -0.199 E-score.

Consider TACGGCGA, for which the binding signal was -0.0698 E-score.

In the case of GCGTCGCC, the binding signal was -0.254 E-score.

Sequence CGTATCCA yielded a binding signal of -0.0617 E-score.

In turn, AAATTACT came in with a binding signal of 0.358 E-score.

For CAGCTACC, the binding signal was -0.0164 E-score.

As for CAGCACCG, the binding signal is -0.136 E-score.

Sequence ACGACTAA came in with a binding signal of 0.0491 E-score.

As to AACCCGGA, the binding signal was -0.0325 E-score.

GCGCCGTA showed a binding signal of -0.0818 E-score.

For CCAGTACC, the binding signal is -0.138 E-score.

As for AGTGTTCG, the binding signal is -0.0831 E-score.

CTTCCTCC yielded a binding signal of -0.265 E-score.

The sequence ACGTGAGG displayed a binding signal of -0.0106 E-score.

As for TTAGGGAA, the binding signal was -0.113 E-score.

Sequence CAGGCGGG had a binding signal of -0.342 E-score.

Consider GAATCTCC, for which the binding signal was determined as 0.0847 E-score.

Regarding AGTACAAC, the binding signal is 0.18 E-score.

In turn, GCACTGGC yielded a binding signal of -0.241 E-score.

AATCGATC displayed a binding signal of 0.078 E-score.

Turning to AAAGCAAT, the binding signal worked out at 0.181 E-score.

With ATGAGACC, the binding signal is -0.057 E-score.

The sequence CTTATGTC had a binding signal of 0.034 E-score.

ACCATTAA: the binding signal was 0.134 E-score.

As to GCCGCGCC, the binding signal is -0.222 E-score.

For GGCACTCA, the binding signal was -0.145 E-score.

Sequence AAGGGAGT had a binding signal of -0.0497 E-score.

For ACGCGTGC, the binding signal is -0.189 E-score.

CCGTAAAA showed a binding signal of 0.105 E-score.

The sequence AGCTCGCG displayed a binding signal of -0.199 E-score.

Sequence GGATATAC came in with a binding signal of 0.288 E-score.

Turning to CGGTATGC, the binding signal was -0.0795 E-score.

In turn, ACAGCTGC showed a binding signal of -0.269 E-score.

In the case of ATTGGAAG, the binding signal is -0.0627 E-score.

In turn, AACAGTAT registered a binding signal of 0.165 E-score.

ACCACTAT: the binding signal is 0.189 E-score.

Sequence GATACCAA showed a binding signal of 0.173 E-score.

In the case of GTATCAGA, the binding signal was -0.0961 E-score.

Take CCTAACAC: the binding signal is -0.0872 E-score.

CGTATAAC displayed a binding signal of 0.152 E-score.

Sequence CGGGAGAG registered a binding signal of -0.236 E-score.

Sequence ATGGAGGA returned a binding signal of -0.0415 E-score.

Turning to CGCGGTAG, the binding signal came out at 0.00539 E-score.

Sequence AGATCCCT yielded a binding signal of 0.0375 E-score.

On to AATTACGG, for which the binding signal is 0.205 E-score.

AGTGTGTA came in with a binding signal of 0.0953 E-score.

For ATCACGCG, the binding signal was determined as 0.0545 E-score.

On to AAACGGTG, for which the binding signal was -0.0447 E-score.

For ACAGCTAG, the binding signal came out at 0.118 E-score.

The sequence AACGCTTC came in with a binding signal of -0.296 E-score.

The sequence GACGTCGA yielded a binding signal of -0.118 E-score.

Turning to ACTCAAAT, the binding signal was -0.0178 E-score.

Regarding GGAACAAC, the binding signal is -0.133 E-score.

Turning to ACCGCGCC, the binding signal is -0.254 E-score.

CTATTCTA: the binding signal was found to be 0.287 E-score.

Sequence AGACGACC displayed a binding signal of -0.145 E-score.

The sequence ATGAGATA returned a binding signal of 0.234 E-score.

(Values after publication PMC6212790.)
